# From the supplement of paper PMC12067093, “Discovery and optimisation of a covalent ligand for TRIM25 and its application to targeted protein ubiquitination” (Chemical Science, 2025)
# Targets with the largest changes are over-represented here; the source holds about 21,000 in all.
# Compound: CC1Cc2ccccc2N1C(=O)C1CCCN(C1)C(=O)CCl (mixture of isomers) [TRIM25 ligand 11 (diastereomer mixture)]
# Assay: probe-labelled cysteine peptide fold change vs DMSO (competition) (log2 fold change); higher = less target engagement (more negative = stronger competition)
# Settings: THP-1, incubation time: 4 h
# 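Also: competitive chemoproteomic profiling in live THP-1 cells with an iodoacetamide desthiobiotin (IA-DTB) probe, comparing probe-labelled peptide intensities in compound-treated cells against DMSO-treated controls.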
Target,probe-labelled cysteine peptide fold change (10 µM),probe-labelled cysteine peptide fold change (50 µM)
PSMG2_Q969U7_195_TLYDESCSK (UniProt Q969U7),-0.167,-0.0376
RP2_O75695_131_LEVFLCCATQPIIESSSNIK (UniProt O75695),0.2,0.142
RBBP5_Q15291_100_LVSASTDNIVSQWDVLSGDCDQR (UniProt Q15291),-0.0552,-0.0987
PTGS1_P23219_158_DCPTPMGTK (UniProt P23219),-0.0823,-0.0821
RMI1_Q9H9A7_268_CFTTGSSSNTIPTR (UniProt Q9H9A7),0.0146,-0.205
RFC3_P40938_32_NLVQCGDFPHLLVYGPSGAGKK (UniProt P40938),0.0273,-0.0261
RANBP2_P49792_2710_ECIIVWEK (UniProt P49792),-0.0786,-0.154
RBBP5_Q15291_43_WGTLLAVGCNDGR (UniProt Q15291),-0.0445,-0.0011
PYCARD_Q9ULZ3_173_LFSFTPAWNWTCK (UniProt Q9ULZ3),-0.0339,-0.0628
RAN_P62826_120_VCENIPIVLCGNKVDIK (UniProt P62826),-0.364,-0.326
RPL7_P18124_186_SLGKYGIICMEDLIHEIYTVGKR (UniProt P18124),-0.462,-0.587
RAP1GDS1_P52306_560_YNSMVLICALMGSECLHK (UniProt P52306),-0.301,-0.167
RAB33A_Q14088_57_FCGGTFPDK (UniProt Q14088),0.204,0.327
PWWP2B_Q6NUJ5_480_LHTQSVSECITEDGR (UniProt Q6NUJ5),-0.0232,0.123
RAB3GAP2_Q9H2M9_636_SQELESVDEGLLQFCANK (UniProt Q9H2M9),0.177,0.074
RPL14_P50914_54_CMQLTDFILK (UniProt P50914),-0.148,-0.282
RNH1_P13489_12_SLDIQSLDIQCEELSDAR (UniProt P13489),1.15,0.678
PXN_P49023_443+446_TWHPEHFFCAQCGAFFGPEGFHEK (UniProt P49023),0.00021,-0.112
PTGS2_P35354_299_EHNRVCDVLK (UniProt P35354),-0.468,-0.683
RARS_P54136_150_HLPDNECIEK (UniProt P54136),-0.0415,0.0172
PSMA6_P60900_115_YGYEIPVDMLCKR (UniProt P60900),-0.65,-0.444
RCHY1_Q96PM5_43_LCHDNNEDHQLDR (UniProt Q96PM5),0.326,0.536
RABGAP1_Q9Y3P9_433_VCSPNER (UniProt Q9Y3P9),0.28,0.513
PSMA7_O14818_70_ICALDDNVCMAFAGLTADAR (UniProt O14818),0.0906,0.243
RBM22_Q9NW64_165_NRPHICSFWVK (UniProt Q9NW64),-0.382,-0.461
RIC8A_Q9NPQ8_79_DRNCLDPFTSR (UniProt Q9NPQ8),0.00403,-0.00993
RANGAP1_P46060_152_LNNCGMGIGGGK (UniProt P46060),-0.123,-0.108

Target,probe-labelled cysteine peptide fold change (10 µM),probe-labelled cysteine peptide fold change (50 µM)
RGPD3_A6NKT7_220_EYLESLQCLESDKSDWR<|>RGPD8_O14715_220_EYLESLQCLESDKSDWR<|>RGPD1_P0DJD0_211_EYLESLQCLESDKSDWR<|>RGPD2_P0DJD1_219_EYLESLQCLESDKSDWR<|>RANBP2_P49792_220_EYLESLQCLESDKSDWR<|>RGPD4_Q7Z3J3_220_EYLESLQCLESDKSDWR (UniProt Q7Z3J3+P49792+P0DJD1+P0DJD0+O14715+A6NKT7),0.0118,-0.0884
QSER1_Q2KHR3_283_SCSTEQPLTSTK (UniProt Q2KHR3),-0.0163,-0.203
RBM17_Q96I25_339_CVIFEIPGAPDDEAVR (UniProt Q96I25),-0.0382,0.0679
RABGGTA_Q92696_516_LQELLLCNNR (UniProt Q92696),-0.164,-0.00022
ROCK1_Q13464_1261_PLWHVFKPPPALECR (UniProt Q13464),0.0252,0.186
RECQL_P46063_224_IAVDEVHCCSQWGHDFRPDYK (UniProt P46063),0.106,-0.0269
RNASET2_O00584_48_KLIMVQHWPETVCEK (UniProt O00584),-0.192,-0.349
RBL1_P28749_439_GIGETFCQHYTQSTDEQPGSHIDFAVNR (UniProt P28749),0.154,0.0553
PSMA7_O14818_91_ARVECQSHR (UniProt O14818),-1.58,-0.169
RNASE2_P10153_138_YAQTPANMFYIVACDNRDQR (UniProt P10153),-0.64,-0.589
QPRT_Q15274_96_GPAHCLLLGER (UniProt Q15274),-0.0381,-0.00739
PYGL_P06737_496_WLLLCNPGLAELIAEK (UniProt P06737),0.163,0.0845
PTER_Q96BW5_38_TLTHEHLAMTFDCCYCPPPPCQEAISK (UniProt Q96BW5),-0.0466,-0.326
RBM23_Q86U06_215_GIAYVEFCEIQSVPLAIGLTGQR (UniProt Q86U06),-0.0573,-0.975
QSOX1_O00391_449_GYVHYFFGCR (UniProt O00391),0.0307,0.255
QARS_P47897_657_GPSGCVESLEVTCR (UniProt P47897),0.172,0.386
PTPN1_P18031_344_EETQEDKDCPIKEEK (UniProt P18031),-0.668,-0.558
RAB4A_P20338_28_SCLLHQFIEK (UniProt P20338),0.131,0.0331
PSMA6_P60900_161_CDPAGYYCGFK (UniProt P60900),0.145,0.14
RBM14_Q96PK6_108_VIECDVVK (UniProt Q96PK6),-0.0592,0.00146
RABGAP1_Q9Y3P9_476_KNNTDTLYEVVCLESESERER (UniProt Q9Y3P9),-0.104,-0.264
RGS12_O14924_930_EHGDHADDALHANGGLCR (UniProt O14924),0.64,0.263
RPL36A_P83881_77_LECVEPNCR<|>RPL36AL_Q969Q0_77_LECVEPNCR (UniProt Q969Q0+P83881),0.165,-0.125
RING1_Q06587_398_VSRPLELCYAPTK (UniProt Q06587),-0.103,-0.215
ROCK2_O75116_1293_PLWHMFKPPPALECR (UniProt O75116),-0.623,0.0494
RNF213_Q63HN8_4017_DPVCLPCDHVHCLR (UniProt Q63HN8),0.244,0.279
RBM39_Q14498_478_CPSIAAAIAAVNALHGR (UniProt Q14498),-0.11,-0.0358

Target,probe-labelled cysteine peptide fold change (10 µM),probe-labelled cysteine peptide fold change (50 µM)
RLF_Q13129_773_CELNGCNIVFSDLGQLYHHEAQHFR (UniProt Q13129),0.133,0.0282
RAD50_Q92878_990_VIAQLSECEK (UniProt Q92878),-0.0639,0.0539
RANBP2_P49792_815_MICQQVEAIKK (UniProt P49792),-0.0489,-0.134
RNF213_Q63HN8_1677_EGGDVTELLAALCR (UniProt Q63HN8),0.505,0.57
RLF_Q13129_564_RECIEAR (UniProt Q13129),-0.00324,0.153
RECQL5_O94762_977_CESEADWHGLCGPQR (UniProt O94762),0.184,0.135
PTPN11_Q06124_490_GVDCDIDVPK (UniProt Q06124),0.0387,0.0834
RNF126_Q9BV68_16_YFCHCCSVEIVPR (UniProt Q9BV68),0.0422,0.142
PXK_Q7Z7A4_196_DFQCLIK (UniProt Q7Z7A4),0.378,0.185
RAB3GAP2_Q9H2M9_828_TACIQSENNGAALLSAHVGHSVAAQISNNMTEK (UniProt Q9H2M9),0.106,-0.168
PUM3_Q15397_185_VIQCYIQYGNEEQRK (UniProt Q15397),-0.199,-0.0297
PTBP3_O95758_68_IPCDVTEAEIISLGLPFGK (UniProt O95758),0.0678,0.032
RBM5_P52756_649_MACLLCR (UniProt P52756),-0.00855,0.0626
PSMD1_Q99460_660_YGAAMALGICCAGTGNK (UniProt Q99460),0.108,0.0435
RBM47_A0AV96_71_GCEVFVGK,-0.0661,0.127
RASGRP4_Q8TDF6_502_LSGNFPFACHGLHPPPR (UniProt Q8TDF6),-0.133,-0.088
PSMA5_P28066_47_LGSTAIGIQTSEGVCLAVEK (UniProt P28066),0.0727,0.115
ROCK2_O75116_428_ENLLLSDSPSCR (UniProt O75116),0.109,-0.0572
RBFA_Q8N0V3_338_TEDGHSCGASR (UniProt Q8N0V3),0.364,-0.0691
RNF169_Q8NCN4_132_DDGQADSEVLGECAR (UniProt Q8NCN4),-0.115,-1.06
RAI14_Q9P0K7_168_DLDGNIPLLLAVQNGHSEICHFLLDHGADVNSR (UniProt Q9P0K7),0.0328,0.563
RABEP1_Q15276_734_ENLEETLQLEIENCK (UniProt Q15276),-0.00626,-0.0663
PTDSS1_P48651_347_QYYAYLTDTQCK (UniProt P48651),0.288,0.00859
RNASE2_P10153_138_YAQTPANMFYIVACDNR (UniProt P10153),0.0539,-0.146
PSTPIP1_O43586_213_TTCEAFQLQEFDRLTILR (UniProt O43586),-0.24,-0.28
